Test results reported in PubChem BioAssay AID624417 (National Center for Advancing Translational Sciences (NCATS), 2012).
About 6,400 (1.6%) of roughly 410,000 compounds were called active. This list was built around the results that the source calls inconclusive (neither active nor inactive); the mix of calls is not that of the screen. Calls come from the whole dose curve; as a rule, active = well fitted inhibition curve with a large enough effect; inconclusive = small, poorly fitted or top-dose-only effect; inactive = no such curve, though single readings can be large or run the other way. No potency is given beside an inconclusive call; the fits are too rough.

target: Glucagon-like peptide 1 receptor (Homo sapiens) (UniProt P43220); assay: qHTS of GLP-1 Receptor Inverse Agonists (Inhibition Mode); conditions: HEK293 GLP-1R CRE-luciferase, luminescence, 24 h, GLP-1R form is constitutively active; activity change, negative = inhibition: at 38.3 µM (top of the series) unless noted; note: nearly all actives have a fitted effect of over 55% in size
In short: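 GLP-1R inverse agonism mode: basal reporter luminescence in engineered HEK293 cells measured after one day of compound exposure at 37 deg C, with a 12 min room-temperature detection step.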
% is set by controls: 0 for no effect and ±100 for the full control effect; potency is the fitted concentration of half-maximal effect; tags give direction and shape of the fitted curve.

Chain of UniProt P43220 (P43220 whole entry, looked up): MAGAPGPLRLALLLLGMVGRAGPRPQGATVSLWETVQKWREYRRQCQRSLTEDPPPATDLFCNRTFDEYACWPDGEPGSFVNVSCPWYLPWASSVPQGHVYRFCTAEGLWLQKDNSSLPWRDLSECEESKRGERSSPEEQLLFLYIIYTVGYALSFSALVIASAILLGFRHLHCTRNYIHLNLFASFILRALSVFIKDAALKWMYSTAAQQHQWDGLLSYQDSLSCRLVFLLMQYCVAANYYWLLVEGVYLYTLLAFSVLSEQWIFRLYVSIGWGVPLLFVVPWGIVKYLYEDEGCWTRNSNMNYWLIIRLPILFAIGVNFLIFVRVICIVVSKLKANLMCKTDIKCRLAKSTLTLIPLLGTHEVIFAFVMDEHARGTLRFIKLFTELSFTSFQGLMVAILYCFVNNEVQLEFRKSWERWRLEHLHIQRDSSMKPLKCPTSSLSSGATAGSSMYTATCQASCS

Structure (SMILES)	activity change, negative = inhibition	Potency
Cc1cc(O)c(C2(O)C(=O)Nc3cc(Br)ccc32)cc1C (stereo unspecified)	inconclusive: -84.8% [inhibitor]	–
O=C(O)c1ccc2noc(-c3ccccc3)c2c1	–	inactive
Cc1ccc(NS(=O)(=O)c2ccc3nc(-c4ccccc4)[nH]c3c2)c(Cl)c1	–	inconclusive [inhibitor, single point]
Cc1ccc(S(=O)(=O)N2[C@@H](c3ccc(Cl)cc3)C(C(=O)O)=C[C@H]2C(C)(C)C)cc1	–	inconclusive [inhibitor, single point]
CCC(CC)COC(=O)C1=C(C)NC(=O)NC1c1ccc2c(c1)OCO2 (stereo unspecified)	–	inconclusive [inhibitor, single point]
CCN(C(=O)Nc1cccc(Cl)c1)c1ccccc1	–	inconclusive [inhibitor, single point]
COc1ccc(/C=C2\SC(=S)N(CC3CCCO3)C2=O)cc1 (stereo unspecified)	–	inconclusive [inhibitor, single point]
CC1(C(=O)NCc2ccccc2)CN(S(C)(=O)=O)CC(=O)N1CCc1ccccc1F (stereo unspecified)	–	inactive
N#Cc1c(-c2ccc(Cl)cc2)ccn2nc(CCC(=O)O)nc12	–	inactive
O=C(Oc1c(Cl)cc(Cl)c2cccnc12)N1CCCCC1	–	inconclusive [inhibitor, single point]
COC(=O)[C@]12CCCCC=C1N(Cc1cccc3ccccc13)C(=O)[C@H](CC(=O)NCc1ccccc1)C2	–	inconclusive [inhibitor, partial curve, poor fit]
O=C(Oc1ccc(F)cc1)c1nc(SCc2ccccc2F)ncc1Cl	–	inactive
O=C(NC1CCN(c2ncccn2)CC1)c1ccccc1Cl	–	inactive
COc1ccccc1C(=O)NC1(C(F)(F)F)C(=O)Nc2c1c(=O)[nH]c(=O)n2-c1ccccc1 (stereo unspecified)	–	inactive
Brc1ccc(OCc2nc3ccccc3[nH]2)cc1	–	inconclusive [inhibitor, single point]
O=C(NC(=S)N1CCOCC1)C12CCC3CC(CC(C3)C1)C2	–	inconclusive [inhibitor, partial curve, poor fit]
CCc1cc2cc(C)ccc2nc1SCC(=O)N1CCN(C(=O)c2ccco2)CC1	–	inconclusive [inhibitor, partial curve, poor fit]
CCn1c(CNC(=O)C23CC4CC(CC(C4)C2)C3)nnc1SCC(=O)Nc1ccccc1	–	inactive
O=S(=O)(c1cccc(Cl)c1)N1CN(CC2CCCO2)c2nc3ccccc3nc21 (stereo unspecified)	–	inconclusive [inhibitor, single point]
CCOc1ccc(-n2c(SCC(=O)Nc3ccc(OC)cc3)nc3sc4c(c3c2=O)CCN(C)C4)cc1	–	inconclusive [inhibitor, single point]
COc1cccc(CNC(=O)c2cc3c(s2)-c2c(C)cccc2OC3)c1	–	inconclusive [inhibitor, partial curve, poor fit]

Structure (SMILES)	activity change, negative = inhibition	Potency
OC(CSc1ccccc1)CN1CCN(c2cccc(Cl)c2)CC1 (stereo unspecified)	–	inconclusive [inhibitor, partial curve, poor fit]
COc1ccc(N(Cc2ccccc2)S(=O)(=O)c2ccc(C)cc2)cc1	–	inconclusive [inhibitor, single point]
CC(OC(=O)c1ccccc1NS(=O)(=O)c1cccc(N)c1)C(=O)N(C)Cc1ccccc1 (stereo unspecified)	–	inconclusive [inhibitor, single point]
Cc1nc2ccccc2c2c(N)c3ccccc3n12	–	inconclusive [inhibitor, single point]
CC(=O)c1ccc(NC(=S)Nc2ccn(Cc3ccc(Br)cc3)n2)cc1	–	inconclusive [inhibitor, partial curve, poor fit]
Cn1c(SCC(=O)Nc2cc(Cl)cc(Cl)c2)nnc1-c1ccc2nonc2c1	–	inactive
Cc1c(C#N)c(NC(=O)CCl)n(Cc2ccccc2)c1C	–	inconclusive [inhibitor, partial curve, poor fit]
Cc1ccc(Sc2ccc(NC(=O)CCl)cc2)cc1C	–	inconclusive [inhibitor, single point]
O=C(O)c1ccc(NNC(=S)Nc2cc(C(F)(F)F)ccc2Cl)cc1	–	inconclusive [inhibitor, partial curve, poor fit]
COc1cc2ncc(C(=O)c3ccccc3)c(N3CCN(Cc4ccccc4)CC3)c2cc1OC	–	inconclusive [inhibitor, single point]
COc1ccc(-n2nc3c(N4CCCC(C(=O)NCc5cccc(F)c5)C4)nnc(C)c3c2C)cc1 (stereo unspecified)	–	inactive
CCN(CC)CCCNC(=O)C1CCN(c2ncnc3c2sc2cccc(F)c23)CC1	–	inconclusive [inhibitor, single point]
COc1ccc(Cc2c(-c3ccco3)nc3c(C)cc(Br)cn23)c(C)c1	–	inactive
CC(C)OC(=O)c1nnn(-c2nonc2N)c1CN1CCc2ccccc2C1	–	inconclusive [inhibitor, single point]
Cc1oc(-c2cc(Cl)cc(Cl)c2)cc1C(=O)NCCc1ccccc1	–	inconclusive [inhibitor, single point]
Cc1cccc(NC(=O)CC(=O)Nc2cccc(C)c2)c1	inconclusive: -54.6% [inhibitor]	–
COc1ccc(-c2oc3ccccc3c2C(=O)OCc2ccccc2OC)cc1	–	inconclusive [inhibitor, single point]
C[C@@H]1CN([C@@H](C)CO)C(=O)c2cc(N(C)C)ccc2O[C@@H](C)CCCCO[C@@H]1CN(C)Cc1ccc2c(c1)OCO2	–	inconclusive [inhibitor, partial curve]
CCOC(=O)[C@]12CCCC=C1N(Cc1ccccc1)C(=O)[C@H](CC(=O)NCC1CCCCC1)C2	–	inconclusive [inhibitor, single point]
Cc1ccoc1C(=O)N1CCCC(CO)(Cc2ccc(F)cc2)C1 (stereo unspecified)	–	inconclusive [inhibitor, single point]
